Each structure is given as a SMILES string. Screen size: about 310,000 compounds; about 2,200 (0.71%) showed an effect of 50% or more. The effect is printed as a negative number. Some of the results follow.

For this test, the target named is human ether-à-go-go-related gene (hERG) potassium channel (human, UniProt Q12809). Kind of test: primary screen, population patch clamp on CHO cells stably expressing hERG.
Sequence of human ether-à-go-go-related gene (hERG) potassium channel (Q12809 whole entry, looked up): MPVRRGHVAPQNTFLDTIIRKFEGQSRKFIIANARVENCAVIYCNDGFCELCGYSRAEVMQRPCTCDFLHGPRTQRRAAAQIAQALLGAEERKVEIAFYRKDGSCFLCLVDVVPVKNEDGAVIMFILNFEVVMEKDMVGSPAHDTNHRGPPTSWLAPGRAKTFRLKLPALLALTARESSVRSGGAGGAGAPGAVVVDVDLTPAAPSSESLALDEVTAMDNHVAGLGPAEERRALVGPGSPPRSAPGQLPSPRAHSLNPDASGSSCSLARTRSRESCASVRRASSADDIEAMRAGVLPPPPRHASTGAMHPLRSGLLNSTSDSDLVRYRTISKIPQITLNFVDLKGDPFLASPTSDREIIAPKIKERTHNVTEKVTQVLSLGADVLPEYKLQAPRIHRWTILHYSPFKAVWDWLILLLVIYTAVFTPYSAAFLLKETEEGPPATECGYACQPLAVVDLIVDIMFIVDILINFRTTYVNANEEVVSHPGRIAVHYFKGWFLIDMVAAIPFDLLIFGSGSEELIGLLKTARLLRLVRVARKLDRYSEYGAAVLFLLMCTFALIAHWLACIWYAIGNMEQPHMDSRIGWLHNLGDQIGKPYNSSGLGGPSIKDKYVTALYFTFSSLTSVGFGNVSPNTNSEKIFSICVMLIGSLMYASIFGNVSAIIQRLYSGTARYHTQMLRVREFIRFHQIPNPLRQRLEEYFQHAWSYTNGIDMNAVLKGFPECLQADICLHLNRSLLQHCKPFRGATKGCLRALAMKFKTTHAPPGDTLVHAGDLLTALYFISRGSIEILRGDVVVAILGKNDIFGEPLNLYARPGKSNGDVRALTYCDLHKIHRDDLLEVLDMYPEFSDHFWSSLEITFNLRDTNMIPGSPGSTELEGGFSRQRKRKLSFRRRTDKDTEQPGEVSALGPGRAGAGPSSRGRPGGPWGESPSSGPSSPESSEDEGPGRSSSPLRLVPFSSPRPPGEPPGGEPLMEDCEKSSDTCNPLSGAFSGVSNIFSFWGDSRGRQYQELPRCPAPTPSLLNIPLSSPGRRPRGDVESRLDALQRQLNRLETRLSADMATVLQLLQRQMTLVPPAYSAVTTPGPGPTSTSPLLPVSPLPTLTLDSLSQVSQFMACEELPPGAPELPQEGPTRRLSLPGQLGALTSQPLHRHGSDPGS
Take `Cc1ccc(S(=O)(=O)N(C)CC(=O)N2CCOCC2)cc1`: the “hERG current change (%, negative = inhibition) at 1uM” value came to 11.1%.

As to `CCCCc1ccc(Nc2nc(CCC)cc(=O)[nH]2)cc1`, the “hERG current change (%, negative = inhibition) at 1uM” value was 11.4%. The result for `CCN(CC)S(=O)(=O)c1ccc(N2CCCC2)c(NC(=O)CN2C(=O)NC3(CCCC3)C2=O)c1` reads 9.03%; that for `CN1CCN(c2cc(-c3cc(O)c4ncccc4c3)ccn2)CC1`, 9.28%. The result for `Cc1ccccc1/C=N/NC(=O)c1cccnc1` reads 2.74%; that for `COC(=O)c1c(NC(=O)c2ccco2)sc(C(=O)N2CCCC2)c1C`, 8.01%. As to `O=C(COC(=O)c1ccc(NS(=O)(=O)c2cccs2)cc1O)NC1CCCCC1`, the “hERG current change (%, negative = inhibition) at 1uM” value is given as 17.1%.

With `Cc1ccc(NC(=O)CSc2nnc(CNC(=O)C34CC5CC(CC(C5)C3)C4)n2-c2ccc(F)cc2)cc1`, the “hERG current change (%, negative = inhibition) at 1uM” value worked out at 19.5%. In the case of `C=C(C)COc1ccc2c(C)c(CC(=O)N3C[C@H]4C[C@@H](C3)c3cccc(=O)n3C4)c(=O)oc2c1`, the “hERG current change (%, negative = inhibition) at 1uM” value is listed as -27.2%. The result for `O=C1CSc2ccc(S(=O)(=O)NCc3ccccc3Cl)cc2N1` reads 12.2%; that for `COc1ccc(NC(=O)/C=C/c2ccc(S(=O)(=O)N3CCOCC3)cc2)cc1`, 7.54%. Regarding `CCOc1ccccc1C1NC(=O)CCC1[N+](=O)[O-]` (stereo not shown), the “hERG current change (%, negative = inhibition) at 1uM” value is recorded as 14.7%. `CCCNS(=O)(=O)c1ccc(OCC(=O)NCCC2=CCCCC2)cc1`: the “hERG current change (%, negative = inhibition) at 1uM” value is -1.06%.

For `Clc1ccc(Cn2ccc(C3CC3)n2)cc1`, the “hERG current change (%, negative = inhibition) at 1uM” value is 7.59%. The result for `Cc1ccc(CNC(=O)C(=O)NCC2CCCN2S(=O)(=O)c2cccs2)cc1` (stereo not shown) reads -1.11%. The result for `Cc1ccc(NC(=O)CC(C)N2CCCC2)cc1` (stereo not shown) reads 12.5%; that for `CNc1c(NS(=O)(=O)c2ccc(F)c(Cl)c2)c(=O)oc2ccccc12`, 7.81%. `COc1ccc2cc(C(=O)C3CCCN(Cc4cnc(C)s4)C3)ccc2c1` (stereo not shown): the “hERG current change (%, negative = inhibition) at 1uM” value is on record as 9.99%.

On to `O=C(CSc1ncnc2scc(-c3ccccc3)c12)NCc1ccc2c(c1)OCO2`, for which the “hERG current change (%, negative = inhibition) at 1uM” value is given as 18.3%. The result for `Cc1cc(NC(=O)[C@H](C)NC(=O)c2ccco2)ccc1Br` reads 10.1%. Take `NNC(=O)c1cc2cc(OC(F)(F)F)ccc2[nH]1`: the “hERG current change (%, negative = inhibition) at 1uM” value worked out at 4.44%. On to `CC(C)N(Cc1ccccc1)C(=O)/C=C/c1ccccc1[N+](=O)[O-]`, for which the “hERG current change (%, negative = inhibition) at 1uM” value was found to be 8.29%.

As for `COc1ccc(-c2noc(=O)n2Cc2ccccc2F)cc1`, the “hERG current change (%, negative = inhibition) at 1uM” value is listed as 8.92%. The result for `N#CC1=C(N)OC2=C(C(=O)CCC2)C1c1ccc2c(c1)OCO2` (stereo not shown) reads 12.3%.

In the case of `Cc1ccc(CN(C)CC(=O)NC(C)c2ccccc2)cc1` (stereo not shown), the “hERG current change (%, negative = inhibition) at 1uM” value was determined as 10%. The result for `CCN(CC)c1ccc(NS(=O)(=O)c2ccc3c(c2)oc(=O)n3C)c(C)c1` reads 11.7%; that for `Cc1ccc(NC(=O)CN(C)C2CCCCC2)cc1Br.Cl`, 14.6%.

On to `CCC1=Nc2cc(C(=O)NCCCN3CCOCC3)ccc2Sc2ccccc21`, for which the “hERG current change (%, negative = inhibition) at 1uM” value came out at 7.57%.

As for `Cc1ccc(CCC(=O)Nc2ncc(Cc3cccc(Cl)c3Cl)s2)o1`, the “hERG current change (%, negative = inhibition) at 1uM” value worked out at 34.2%. With `NC(=O)SCC(=O)Nc1cccc(Cl)c1`, the “hERG current change (%, negative = inhibition) at 1uM” value is given as 10.2%. The result for `Cc1ccc(C(=O)N(CC(=O)NC2CCCC2)Cc2cccs2)s1` reads -5.01%.

For the compound `CN1/C(=C\C=N\NC(=O)c2cccnc2)C(C)(C)c2ccccc21`, the “hERG current change (%, negative = inhibition) at 1uM” value worked out at 12.4%.

In the case of `COc1ccc(/C=N/n2cc(-c3ccccc3)nc2N)cc1`, the “hERG current change (%, negative = inhibition) at 1uM” value is -3.53%.

In the case of `O=C(NNc1nc(Nc2ccccc2)nc(N2CCOCC2)n1)Nc1ccc(Cl)cc1`, the “hERG current change (%, negative = inhibition) at 1uM” value was 12.3%. The result for `CC(C)C(c1nnnn1Cc1ccc(F)cc1)N1CCN(C(=O)c2ccco2)CC1` (stereo not shown) reads -14.8%; that for `Cn1cnc(S(=O)(=O)Nc2cc(C(F)(F)F)ccc2N2CCOCC2)c1`, 24.9%. The result for `Cc1noc(C)c1/C=N/Nc1ccc2ccccc2n1` reads -2.62%; that for `O=C(C1=NN[C@@H]2C(=O)N(Cc3ccccc3)C(=O)[C@H]12)c1ccc([N+](=O)[O-])cc1`, -5.6%; that for `Cc1ccc(N2CC(C(=O)NCCN3CCOCC3)CC2=O)cc1C` (stereo not shown), 8.62%. On to `CCOc1cc(N)c(Cl)cc1C(=O)NCC1CN(Cc2ccc(F)cc2)CCO1.O=C(O)CC(O)(CC(=O)O)C(=O)O` (stereo not shown), for which the “hERG current change (%, negative = inhibition) at 1uM” value is listed as -0.642%. The result for `CC(C)c1nc2oc3c(=O)[nH]cnc3c2c2c1CCC2` reads -0.194%; that for `CCC(C)(C)NC(=O)CN(C(=O)CNS(=O)(=O)c1ccc(F)cc1)c1ccc2c(c1)OCCO2`, 15.7%. The result for `O=C(CSc1nnc(-c2ccc(O)cc2)o1)Nc1cccc(O)c1` reads 17.7%; that for `CCCCOc1ccc(/C=N/NC(=S)Nc2cc(C)ccc2C)cc1`, 0.506%. The result for `CCN(CC)N=Nc1ccc(C(=O)[O-])cc1.[K+]` reads 5.98%; that for `COc1ccc(-c2ccc(=O)n(CC(=O)NCC3COCCO3)n2)cc1` (stereo not shown), 8.42%; that for `CC(NCc1ccc(Cl)cc1Cl)C(O)c1ccccc1.Cl` (stereo not shown), -1.57%. For the compound `CCOC(=O)c1nn(C23CC4CC(CC(C4)C2)C3)c2c1C(=O)N(c1ccc(C)cc1)C2=O`, the “hERG current change (%, negative = inhibition) at 1uM” value came out at 21%. The result for `O=C(NCC1CCCO1)c1cn(Cc2ccccc2)nc1-c1ccccc1` (stereo not shown) reads 14.8%. For `Nn1c(SCC(=O)Nc2ccc3c(c2)OCCO3)nnc1-c1ccncc1`, the “hERG current change (%, negative = inhibition) at 1uM” value was -12.9%. The result for `Cl.O[C@@H]1[C@@H](O)C=C2CCN3Cc4cc5c(cc4[C@H]1C23)OCO5` (stereo partly shown) reads 16.9%. The result for `O=C(O)c1cccc(NC(=S)NC(NC(=O)c2cccc([N+](=O)[O-])c2)C(Cl)(Cl)Cl)c1` (stereo not shown) reads -6.23%; that for `COc1cc(/C=C(/C#N)c2nc3ccccc3[nH]2)ccc1OCC(=O)Nc1ccccc1C(C)C`, 4.01%. `CCOC(=O)CC(NC(=O)Cn1nnc(-c2ccccc2)n1)c1ccc(OC)cc1` (stereo not shown): the “hERG current change (%, negative = inhibition) at 1uM” value is recorded as -4.12%. The result for `CC1CCCN(C(=O)CN2C(=O)c3ccccc3C2=O)C1` (stereo not shown) reads 6.22%.

Source of the values: PMC4336329 (PLoS ONE, 2015).
